Measured values taken from patent US20260240901A1, “COMBINATION OF NITROUS OXIDE AND 5-HT2A RECEPTOR AGONISTS” (Cybin IRL Limited, priority 2022, published 2026).

Key:
Settings in all cases: 60 min treatment + 60 min room air, DMT-d10 5.6 mg/kg s.c., N2O 50% inhaled
[1] = system: nuclear factor of kappa light polypeptide gene enhancer in B-cells inhibitor, alpha (ikba or Ikβα); assay: RTqPCR gene expression in mouse left frontal cortex: ikba
[2] = system: discs large homolog 4 (dlg4 or psd-95); assay: RTqPCR gene expression in mouse left frontal cortex: dlg4; format: in vivo, mice (C57B16/J)
[3] = system: regulatory associated protein of MTOR complex 1 (rptor); assay: RTqPCR gene expression in mouse left frontal cortex: rptor; format: in vivo, mice (C57B16/J)

Structure (SMILES)	ikba gene expression, percentage change compared to control (Veh/Air), % mean [1]	dlg4 gene expression, percentage change compared to control (Veh/Air), % mean [2]	rptor gene expression, percentage change compared to control (Veh/Air), % mean [3]
[2H]C([2H])([2H])N(C([2H])([2H])[2H])C([2H])([2H])C([2H])([2H])c1c[nH]c2ccccc12 [DMT-d10]	40.73%	−1.25%	1.97%
[N-]=[N+]=O [N2O, nitrous oxide]	56.11%	−4.46%	17.79%
